Data: PubChem BioAssay (NCATS)
Where “and” joins values, the source holds several entries; their conditions need not be identical. Equal entries are not always repeated. The inconclusive results got no clear call from the source; some entries with a clear call stand among them for comparison. For some assays here: Where the call is inconclusive, the potency comes from a doubtful curve fit. Calls of active or inactive are those of the source. Unless noted, calls follow the shape of the dose curve; as a rule, active = well fitted curve in the direction sought with a large enough effect; inconclusive = small, poorly fitted or top-dose-only effect, or another doubt; inactive = no such curve, though single readings can be large; an effect the other way counts as inactive or inconclusive.

What was measured:
[1] = Primary qHTS for inhibitors of nuclear receptor binding SET domain protein 2 (NSD2) in an isogenic RCH-ACV NSD2 p.E1099K mutant (9B) (AID 1645876); also: nearly all actives have a fitted effect of over 70% in size
[2] = Primary qHTS for inhibitors of nuclear receptor binding SET domain protein 2 (NSD2) in an RCH-ACV wild type WT cells (2C) (AID 1645877); settings: activity change, negative = cell killing: at 44.9 µM (top of the series); also: nearly all actives have a fitted effect of over 70% in size
[3] = Primary fluorescence-based thiol-reactive (MSTI) qHTS assay for identification of artifact compounds. (AID 1845221);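 also: thiol-reactive compounds lower the probe fluorescence signal; nearly all actives have a fitted effect of over 65% in size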
Outline: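 Compounds were incubated 1 h at room temperature in the dark with the MSTI probe (4 uM) in PBS pH 7.4, 2% DMSO. Signals were normalized between Acetyl-MSTI and MSTI.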

CRL-7250 = normal cell line; assay: Cytotoxic Profiling of Annotated Libraries Using Quantitative High-Throughput Screening (AID 1296008); settings: Five cell lines viability, CellTiter-Glo ATP luminescence, 48-72 h; max response: hits give low values; also: nearly all actives have a fitted effect of over 60% in size; as to max response: % is scaled to controls: 0 for no effect and ±100 for the full control effect
Outline: (§1)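 Compounds were pin-transferred onto cells and incubated 48 or 72 hr at 37 degree Celsius, 95% humidity. CellTiter-Glo was added, plates sat 10 min at room temperature, then ATP-coupled luminescence was imaged as the viability read-out.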

HEK293 = assay: as above; settings: Five cell lines viability, CellTiter-Glo ATP luminescence, 48-72 h; max response: hits give low values
Outline: as §1

SKOV3 = assay: Primary qHTS to identify gynecologic anti-cancer compounds using libraries of approved drugs and bioactive compounds (AID 1345084); settings: Gynecologic cancer cell panel viability, ATPlite luminescence, 48 h; series mostly up to 57.5 µM; also: nearly all actives have a fitted effect of over 55% in size; as to activity change, negative = cytotoxicity: % is scaled to controls: 0 for no effect and ±100 for the full control effect
Outline: (§2)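 Luminescence from the ATPlite ATP-monitoring reagent indicates viable cell number; lower signal means cytotoxicity. Cells received compound 16 h after seeding and were exposed for 48 h across five concentrations.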

[4] = P-glycoprotein substrates identified in KB-8-5-11 adenocarcinoma cell line, qHTS therapeutic library screen (AID 1346987); also: nearly all actives have a fitted effect of over 65% in size
Outline: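 KB-8-5-11, a colchicine-selected P-gp-overexpressing KB-3-1 subline, was grown without colchicine for the assay. Cells were seeded at 500 cells/well, dosed in concentration-response and incubated 72 h at 37 degree C, 5% CO2. Viability was read by CellTiter-Glo luminescence.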

[5] = system: Zika virus NS2B-NS3 protease (unlinked complex); assay: Primary screen GU Rhodamine qHTS for Zika virus inhibitors: Unlinked NS2B-NS3 protease assay (AID 1347159); also: nearly all actives have a fitted effect of over 60% in size
Outline: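 Noncovalent NS2B hydrophilic domain–NS3 protease domain complex (25 nM) preincubated 15 min at room temperature with compounds (up to 114 microM) in 10 mM Tris-HCl pH 8.0, 0.01% Tween 20; 1.5 microM Rhodamine110 substrate added, fluorescence change over 15 min fitted to Hill equation.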

OV90 = assay: Primary qHTS to identify gynecologic anti-cancer compounds using libraries of approved drugs and bioactive compounds (AID 1345084); settings: Gynecologic cancer cell panel viability, ATPlite luminescence, 48 h; series mostly up to 57.5 µM; also: nearly all actives have a fitted effect of over 55% in size; as to activity change, negative = cytotoxicity: % is scaled to controls: 0 for no effect and ±100 for the full control effect
Outline: as §2

[6] = biological target: Cytochrome P450 2D6 (Homo sapiens) (UniProt P10635); assay: Cytochrome P450 family 2 subfamily D member 6 (CYP2D6) small molecule antagonists: luciferase biochemical (cell-free) qHTS assay (AID 1645840; active = well fitted curve in the direction sought with a large enough effect in the repeat runs; inconclusive = weak or mixed curves; inactive = no such curve, though single readings can be large; an effect the other way counts as inactive or inconclusive; also: nearly all actives have a fitted effect of over 55% in size)
UniProt P10635, sequence (P10635 whole entry, looked up): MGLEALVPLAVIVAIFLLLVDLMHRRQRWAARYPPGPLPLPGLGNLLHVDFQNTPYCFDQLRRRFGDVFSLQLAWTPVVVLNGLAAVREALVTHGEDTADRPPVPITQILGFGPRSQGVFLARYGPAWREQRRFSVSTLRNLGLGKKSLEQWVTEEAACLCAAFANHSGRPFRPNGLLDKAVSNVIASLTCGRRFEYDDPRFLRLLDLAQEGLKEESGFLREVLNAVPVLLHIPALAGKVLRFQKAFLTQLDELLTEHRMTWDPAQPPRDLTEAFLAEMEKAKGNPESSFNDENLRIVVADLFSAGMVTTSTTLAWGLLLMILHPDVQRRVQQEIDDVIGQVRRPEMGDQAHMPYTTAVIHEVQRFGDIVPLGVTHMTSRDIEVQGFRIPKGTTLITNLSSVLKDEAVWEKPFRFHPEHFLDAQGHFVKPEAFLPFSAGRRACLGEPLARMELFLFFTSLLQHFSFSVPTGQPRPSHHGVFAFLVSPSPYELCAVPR
Outline: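 P450-Glo luminescent screen: recombinant CYP2D6 enzyme–proluciferin substrate mix preincubated with compound 10 min at room temperature, then NADPH regeneration added for 1 h at room temperature. Detection reagent added for 20 min; luciferin light read as relative luminescence units.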

[7] = biological target: Cytochrome P450 2C9 (Homo sapiens) (UniProt P11712); assay: Cytochrome P450 family 2 subfamily C member 9 (CYP2C9) small molecule antagonists: luciferase biochemical (cell-free) qHTS assay (AID 1645842; active = well fitted curve in the direction sought with a large enough effect in the repeat runs; inconclusive = weak or mixed curves; inactive = no such curve, though single readings can be large; an effect the other way counts as inactive or inconclusive; also: nearly all actives have a fitted effect of over 55% in size)
UniProt P11712, sequence (P11712 whole entry, looked up): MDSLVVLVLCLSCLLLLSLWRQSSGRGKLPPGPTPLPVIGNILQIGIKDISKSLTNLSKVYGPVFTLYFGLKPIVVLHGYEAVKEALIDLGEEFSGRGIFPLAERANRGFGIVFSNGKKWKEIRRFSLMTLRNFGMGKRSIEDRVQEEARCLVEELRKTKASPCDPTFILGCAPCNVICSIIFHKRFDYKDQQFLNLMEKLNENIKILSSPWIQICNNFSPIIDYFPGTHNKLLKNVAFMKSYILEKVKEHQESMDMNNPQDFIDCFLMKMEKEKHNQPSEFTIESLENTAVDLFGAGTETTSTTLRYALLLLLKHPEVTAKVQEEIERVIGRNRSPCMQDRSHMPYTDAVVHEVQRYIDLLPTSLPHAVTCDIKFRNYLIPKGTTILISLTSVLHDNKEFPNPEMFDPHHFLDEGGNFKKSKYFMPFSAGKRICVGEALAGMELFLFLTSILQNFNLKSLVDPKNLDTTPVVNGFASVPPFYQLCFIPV
Outline: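 Luminescence, after 20 min with luciferin detection reagent, reflected CYP2C9 turnover during a 1 h NADPH-driven reaction at 37C. Enzyme-substrate mix contained 0.4% bovine serum albumin and was preincubated with compound 10 min at room temperature.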

Tov-21-G = assay: Primary qHTS to identify gynecologic anti-cancer compounds using libraries of approved drugs and bioactive compounds (AID 1345084); settings: Gynecologic cancer cell panel viability, ATPlite luminescence, 48 h; activity change, negative = cytotoxicity: at 57.5 µM (top of the series); also: nearly all actives have a fitted effect of over 55% in size; as to activity change, negative = cytotoxicity: % is scaled to controls: 0 for no effect and ±100 for the full control effect
Outline: as §2

[8] = Primary redox qHTS assay for identification of artifact compounds. (AID 1845223)
Outline: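 Amplex Red (25 uM) and HRP (250 mU/mL) in HBSS, with compounds for 15 min, then 250 uM DTT for 30 min, room temperature, dark. Fluorescence 525/598 nm read; normalized to DMSO and 10 uM DA3003; Hill fit.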
Potency is read from the fitted curve at half-maximal effect; tags tell the direction and shape of the fitted curve.

For `CC1CCCCCCCc2cc(O)cc(O)c2C(=O)O1` (centres undefined), the Potency [1] was inconclusive: 18.3 µM [inhibitor, single point], the Potency [2] was inconclusive: 18.3 µM [inhibitor, single point] and the Potency [3] was active: 26.7 µM. For the same compound, the outcome (CRL-7250) was “inactive”, the max response (HEK293) was inactive: 0.839% and the Potency (SKOV3) was inconclusive: 3.98 µM [rising, single point].

For `C#CCOc1ccc2c(c1)c(-c1ccc(C(C)C)cc1)nc(=O)n2C(C)C`, the Potency [4] was inconclusive: 20.6 µM [inhibitor, single point], the Potency [5] was inconclusive: 25.1 µM [inhibitor, full curve] and the Potency [1] was active: 8.17 µM. The Potency (CRL-7250) was inconclusive: 20.6 µM [inhibitor, single point], the Potency (HEK293) was inconclusive: 29.1 µM [inhibitor, single point] and the Potency (OV90) was inconclusive: 39.8 µM [cytotoxic, single point].

With `CCOc1ccc(-n2c(C(C)N(Cc3cccnc3)C(=O)Cc3ccc(F)c(C(F)(F)F)c3)nc3ncccc3c2=O)cc1` (centres undefined) the Potency [5] was “inactive”, the Potency [1] was inconclusive: 29 µM [inhibitor, single point] and the Potency [2] was inconclusive: 18.3 µM [inhibitor, single point]. The Potency [3] was inconclusive: 42.3 µM [inhibitor, single point], the Potency (CRL-7250) was inconclusive: 1.03 µM [inhibitor, full curve, poor fit] and the Potency (HEK293) was inconclusive: 29.1 µM [inhibitor, single point]. The Potency (SKOV3) was “inactive”.

For `COc1cc(OC)c(NC(=O)c2ccc(Cc3cc4c(cc3C)C(C)(C)CCC4(C)C)o2)c(OC)c1`, the Potency [4] was inconclusive: 29.1 µM [inhibitor, single point], the Potency [5] was inconclusive: 25.1 µM [inhibitor, full curve] and the Potency [6] was inconclusive: 3.01 µM [inhibitor, single point]. For the same compound, the Potency [7] was inconclusive: 21.3 µM [inhibitor, single point], the Potency [1] was inconclusive: 23 µM [inhibitor, single point] and the Potency [3] was inconclusive: 23.8 µM [inhibitor, partial curve]. For the same compound, the Potency (CRL-7250) was inconclusive: 29.1 µM [inhibitor, single point] and the Potency (HEK293) was active: 20.6 µM.

For `C=C1CC[C@@H]2[C@](C)(CO)[C@H](O)CC[C@@]2(C)[C@@H]1CC(O)C1=CCOC1=O` (some centres undefined), the Potency [4] was “inactive”, the Potency [5] was “inactive” and the Potency [1] was inconclusive: 17.9 µM [inhibitor, single point]. The Potency [2] was inconclusive: 12.7 µM [inhibitor, single point], the max response (CRL-7250) was inactive: -6.08% and the Potency (HEK293) was inconclusive: 20.2 µM [inhibitor, single point]. The Potency (SKOV3) was inconclusive: 22.4 µM [cytotoxic, single point] and the Potency (Tov-21-G) was “inactive”.

With `CCC[C@@]1(CCc2ccccc2)CC(O)=C([C@H](CC)c2cccc(NS(=O)(=O)c3ccc(C(F)(F)F)cn3)c2)C(=O)O1` the Potency [4] was inconclusive: 16.4 µM [inhibitor, single point], the Potency [1] was inconclusive: 29 µM [inhibitor, single point] and the Potency [2] was inconclusive: 16.3 µM [inhibitor, partial curve]. The Potency [8] was inconclusive: 2.67 µM [activator, full curve, poor fit], the outcome (CRL-7250) was “inactive” and the Potency (HEK293) was inconclusive: 25.9 µM [inhibitor, single point]. For the same compound, the Potency (SKOV3) was “inactive”.

For `C[C@@H]1COCCN1c1cc(C2(S(C)(=N)=O)CC2)nc(-c2ccnc3[nH]ccc23)n1` (some centres undefined), the Potency [4] was inconclusive: 29.1 µM [inhibitor, single point], the Potency [1] was active: 662 nM and active: 3.66 µM and the Potency (CRL-7250) was inconclusive: 13.2 µM [inhibitor, partial curve, poor fit]. For the same compound, the Potency (HEK293) was inconclusive: 2.63 µM [inhibitor, full curve, poor fit].

For `Cc1ccc(C(C)C)c(O[C@@H]2O[C@H](CO)[C@@H](O)[C@H](O)[C@H]2O)c1`, the Potency (CRL-7250) was active: 16.1 µM and the Potency (HEK293) was inconclusive: 3.6 µM [inhibitor, single point].

For `C=C1C(=O)O[C@@H]2[C@H]1CCC(C)=C(CCC(=O)O)[C@@]2(C)O`, the Potency [5] was “inactive”, the Potency [1] was active: 20.5 µM and the Potency [3] was “inactive”. The Potency (CRL-7250) was inconclusive: 18.4 µM [inhibitor, single point], the Potency (HEK293) was inconclusive: 29.1 µM [inhibitor, single point] and the Potency (SKOV3) was “inactive”.

In the case of `COc1ccc(-c2cnc3c(-c4cccc5ncccc45)cnn3c2)cc1`, the Potency [6] is reported as “inactive”, the Potency [2] is reported as “inactive” and the outcome (CRL-7250) is reported as “inactive”. The Potency (HEK293) was inconclusive: 29.1 µM [inhibitor, single point] and the Potency (SKOV3) was “inactive”.
